# Source: patent US20150231242A1, “COMBINATION OF CD37 ANTIBODIES WITH BENDAMUSTINE” (Boehringer Ingelheim International GmbH, priority 2012, published 2015)
# Where “and” joins values, the source holds several entries; their conditions need not be identical. Equal entries are not always repeated.
# B1: A2: mouse-human chimeric Fc-engineered IgG1 CD37 antibody; heavy chain SEQ ID NO:5, light chain SEQ ID NO:6 (antibody)
# heavy: AVQLQQSGPELEKPGASVKISCKASGYSFTGYNMNWVKQNNGKSLEWIGNIDPYYGGTTYNRKFKGKATLTVDKSSSTAYMQLKSLTSEDSAVYYCARSVGPMDYWGQGTSVTVSSASTKGPSVFPLAPSSKSTSGGTAALGCLVKDYFPEPVTVSWNSGALTSGVHTFPAVLQSSGLYSLSSVVTVPSSSLGTQTYICNVNHKPSNTKVDKRV[human IgG1 Fc with changes omitted here]
# light: DIQMTQSPASLSASVGETVTITCRTSENVYSYLAWYQQKQGKSPQLLVSFAKTLAEGVPSRFSGSGSGTQFSLKISSLQPEDSGSYFCQHHSDNPWTFGGGTELEIKRTVAAPSVFIFPPSDEQLKSGTASVVCLLNNFYPREAKVQWKVDNALQSGNSQESVTEQDSKDSTYSLSSTLTLSKADYEKHKVYACEVTHQGLSSPVTKSFNRGEC
# Key:
# [1] = test system: Ramos Burkitt lymphoma cells; experiment: Apoptosis assay (Annexin V/PI staining, FACS) on Ramos cells; assay type: cell-based, human; details: 48 h, A2 10 μg/ml; for % apoptotic cells: Annexin V positive cells, mean of three experiments
# DoHH2 tumor cells = experiment: DoHH2 human xenograft tumor model (Example 2); assay type: in vivo, CB-17 SCID mice; details: A2 10 mg/kg twice weekly, bendamustine 10 mg/kg twice weekly ip; present-tense example
# [2] = test system: DOHH2 tumors (human follicular lymphoma); experiment: Efficacy in subcutaneous DOHH2 human follicular lymphoma xenograft (Example 3); assay type: in vivo, C.B-17 scid mice; details: day 16; for anti-tumor effect in words: DOHH2 tumors; for TGI: median, antibody A2 10 mg/kg i.p. twice weekly, bendamustine 20 mg/kg i.p. two injections
# [3] = test system: Raji Burkitt lymphoma cells; experiment: Apoptosis assay (Annexin V/PI staining, FACS) on Raji cells; assay type: cell-based, human; details: 48 h, A2 10 μg/ml; for % apoptotic cells: Annexin V positive cells, mean of three experiments
# [4] = mouse, in vivo
molecule,measurement,setting,value
B1,"apoptosis induction, mAb A2 alone",[1]; no bendamustine,9%
same,% apoptotic cells,[1]; bendamustine 100 μM column,9%
same,% apoptotic cells,[1]; bendamustine 400 μM column,9%
same,anti-tumor effect in words,DoHH2 tumor cells,significant anti-tumor effect
same,anti-tumor effect in words,[2]; listed as Antibody A2,significantly inhibited growth
same,anti-tumor effect in words,[2]; listed as antibody A2,growth inhibited
same,CR (complete tumor regression),[2]; 7 mice per group,0 x/7
same,PR (partial tumor regression),[2]; 7 mice per group,0 x/7
same,TGI,[2]; listed as Antibody A2,73%
same,TGI,[2]; listed as antibody A2,73% and 72%
same,"apoptosis induction, mAb A2 alone",[3]; no bendamustine,12%
same,% apoptotic cells,[3]; bendamustine 200 μM column,12%
same,% apoptotic cells,[3]; bendamustine 400 μM column,12%
same,tolerability in words,[4],well tolerated
